Experimental data from PubChem BioAssay (NCI).
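Assay format: 96-well plates, 48-hour exposure. GI50 marks 50% less growth.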 The source holds more than one record for some entries. The other results are left out here. An entry can have further records. For some assays here: A record mostly stands for its own series of concentrations, which the source does not state; a value can be the end of its range.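 TGI: concentration producing complete growth inhibition.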 For some assays here: Values that stand side by side repeat one measurement (runs, samples, wells, individuals or studies). What stands in brackets tells the records apart. Letters hold for one entry only.

Assays:
Assay in all cases: NCI tumour cell line growth inhibition, 48 h
DLD-1 colon = system: DLD-1 colon
LOX IMVI melanoma = system: LOX IMVI melanoma
SNB-19 CNS = system: SNB-19 CNS
RPMI-8226 leukemia = system: RPMI-8226 leukemia
HOP-62 NSCLC = system: HOP-62 NSCLC
UO-31 renal = system: UO-31 renal
SK-MEL-2 melanoma = system: SK-MEL-2 melanoma
RXF 393 renal = system: RXF 393 renal
OVCAR-4 ovarian = system: OVCAR-4 ovarian
NCI-H522 lung = system: NCI-H522 lung
PC-3 prostate = system: PC-3 prostate
NCI-H460 lung = system: NCI-H460 lung
OVCAR-8 ovarian = system: OVCAR-8 ovarian
UACC-257 melanoma = system: UACC-257 melanoma
SF-539 CNS = system: SF-539 CNS
SNB-78 CNS = system: SNB-78 CNS
SK-MEL-5 melanoma = system: SK-MEL-5 melanoma
MDA-MB-231 breast = system: MDA-MB-231 breast
SNB-75 CNS = system: SNB-75 CNS
DU-145 prostate = system: DU-145 prostate
A498 renal = system: A498 renal
EKVX NSCLC = system: EKVX NSCLC
SF-295 CNS = system: SF-295 CNS
OVCAR-3 ovarian = system: OVCAR-3 ovarian
HCC-2998 colon = system: HCC-2998 colon
CCRF-CEM leukemia = system: CCRF-CEM leukemia
HS 578T breast = system: HS 578T breast
SR leukemia = system: SR leukemia
MOLT-4 leukemia = system: MOLT-4 leukemia
SF-268 CNS = system: SF-268 CNS
DMS 114 small cell lung = system: DMS 114 small cell lung
HL-60(TB) leukemia = system: HL-60(TB) leukemia
SW-620 colon = system: SW-620 colon
HOP-18 NSCLC = system: HOP-18 NSCLC
CAKI-1 renal = system: CAKI-1 renal

CCN(CC)CCNc1c2ccccc2nc2cccc([N+](=O)[O-])c12
TGI (DLD-1 colon): 73.8 nM and 11.7 µM | TGI (LOX IMVI melanoma): 42.7 nM and 449 nM | TGI (SNB-19 CNS): 38.8 nM and 1.33 µM

Nc1nc(=O)n(C2CC(O)C(CO)O2)cc1F (configuration not stated)
GI50 (RPMI-8226 leukemia): 7.06 nM [1 test] and 1.13 µM [mean of 2 tests] | GI50 (HOP-62 NSCLC): 4.97 nM and 152 nM | GI50 (UO-31 renal): 3.86 nM [1 test] and 83.1 nM [mean of 2 tests] | GI50 (SK-MEL-2 melanoma): 5.47 nM [1 test] and > 100 µM [mean of 2 tests]

Cc1ccc2c(c1)[n+](=O)c(C(=O)c1cccs1)c(C(F)(F)F)n2[O-]
GI50 (RXF 393 renal): 3.64 µM and 27.9 nM | TGI (RXF 393 renal): 13.3 µM and 256 nM | TGI (RPMI-8226 leukemia): 50 µM and 4.45 µM | GI50 (OVCAR-4 ovarian): 3.53 µM and 232 nM | TGI (OVCAR-4 ovarian): 50 µM and 880 nM | TGI (HOP-62 NSCLC): 47.5 µM and 3.42 µM | TGI (NCI-H522 lung): 50 µM and 1.73 µM | TGI (PC-3 prostate): 3.07 µM and 50.7 µM | TGI (NCI-H460 lung): 2.56 µM and 40.9 µM | TGI (OVCAR-8 ovarian): 50 µM and 732 nM | TGI (UACC-257 melanoma): 10.3 µM and 889 nM

O=C1c2c(O)cccc2C(C(=O)CCCCCC(=O)C2c3cccc(O)c3C(=O)c3c(O)cccc32)c2cccc(O)c21
TGI (SF-539 CNS): 1.15 µM and 16.4 µM | TGI (SNB-78 CNS): 1.53 µM and 17.8 µM | TGI (NCI-H522 lung): 1.57 µM and 19.4 µM | TGI (SK-MEL-5 melanoma): 1.39 µM and 15.4 µM

CC(=O)N[C@H](C)[C@@H](O)[C@@H](C)[C@@H]1OC(=O)/C=C/C=C(C)\C=C\[C@]2(C)C[C@@H](NS(C)(=O)=O)C=C[C@@H]2/C=C(C)/C=C/[C@H]1C
TGI (MDA-MB-231 breast): 3.47 nM and 24.2 µM | TGI (SNB-75 CNS): 17 nM and 2.1 µM | GI50 (DU-145 prostate): 540 nM and 23.1 nM | TGI (A498 renal): 90.4 nM and 1.76 µM | GI50 (EKVX NSCLC): 49.2 nM and 2.74 µM | TGI (SF-295 CNS): 20.2 nM and > 43.5 µM | GI50 (OVCAR-3 ovarian): 3.02 µM and 42.6 nM | GI50 (HCC-2998 colon): 88.2 nM and 21.1 µM

COc1cc2c(Oc3ccc(NC(=O)C4(C(=O)Nc5ccc(F)cc5)CC4)cc3F)ccnc2cc1OCCCN1CCOCC1
TGI (CCRF-CEM leukemia): > 100 µM [sample A, 1 test] and 3.38 µM [sample B, mean of 2 tests] | TGI (HS 578T breast): > 100 µM [sample A, 1 test] and 2.39 µM [sample B, mean of 2 tests]

CC[C@@]1(O)C(=O)OCc2c1cc1n(c2=O)Cc2cc3cc(Cl)ccc3nc2-1
GI50 (CCRF-CEM leukemia): < 1 nM and 19.8 nM | TGI (RPMI-8226 leukemia): > 100 µM [1 test] and 468 nM [mean of 2 tests] | TGI (OVCAR-4 ovarian): 12.8 µM [1 test] and 675 nM [mean of 2 tests] | TGI (SR leukemia): 12.1 nM and > 100 µM | TGI (MOLT-4 leukemia): > 100 µM [1 test] and 5.61 nM [mean of 2 tests] | TGI (SF-268 CNS): 32.3 nM [1 test] and 347 nM [mean of 2 tests] | TGI (HOP-62 NSCLC): 1.01 nM and 13.1 nM | TGI (SNB-78 CNS): 837 nM and 77.2 µM | TGI (DMS 114 small cell lung): 8.48 nM and 319 nM | TGI (HL-60(TB) leukemia): > 100 µM [1 test] and 5.14 nM [mean of 2 tests] | TGI (LOX IMVI melanoma): 235 nM [1 test] and 18.2 nM [mean of 2 tests] | GI50 (SW-620 colon): 58.9 nM [1 test] and 5.13 nM [mean of 2 tests] | GI50 (HOP-18 NSCLC): < 1 nM and 36.6 nM | TGI (HOP-18 NSCLC): 37.2 nM and 5.2 µM | GI50 (CAKI-1 renal): < 1 nM and 23.2 nM
